Experimental data: a collection of fitness landscapes (doi:10.1016/j.celrep.2020.107928)
The full ranking holds about 81,000 sequences; the median of “one-hybrid fitness for binding NBS DNA” is about -0.1, and the highest 2% start at about 0.36. Some of the results follow.

B1: Caulobacter ParB omega fusion; a variant is named by its letters at X, in order, B8GW30 (parent)
chain: MESVVVGEPGMSEGRRGLGRGLSALLGEVDAAPAQAPGEQLGGSREAPIEILQRNPDQPRRTFREEDLEDLSNSIREKGVLQPILVRPSPDTAGEYQIVAGERAWRAAQRAGLKTVPIMVRELDDLAVLEIGIIENVQRADLNVLEEALSYKVLMEKFERTQENIAQTIGKSXSHVANXMRLLXLPDEVQSYLVSGELTAXHARAIAAAADPVALAKQIIEGGLSVRETEALARKAPNLSAGKSKGGRPPRVKDTDTQALESDLSSVLGLDVSIDHRGSTGTLTITYATLEQLDDLCNRLTRGI

Variants of: B1
Assay: one-hybrid fitness for binding NBS DNA (the Noc-binding site; scaled: cognate 1, non-cognate 0); higher = stronger binding
Conditions: with NBS DNA site
Procedure, shortened: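 In E. coli USO, a HIS3 reporter with its site placed 19 bp from the promoter was used to select Caulobacter ParB variants randomised at four specificity codons. Growth lasted 48 hours at 37°C on histidine-free M9 containing 0.1 mM IPTG and 5 mM 3-AT. Fitness was taken as the log change in variant-to-wild-type read ratio from Illumina sequencing of pre- and post-selection plasmids, rescaled between the non-cognate and cognate sites.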

Variant	one-hybrid fitness for binding NBS DNA
WLDG	≤ 0.2
VCRG	≤ 0.2
QLDD	≤ 0.2
VWRA	≤ 0.2
MRRM	≤ 0.2
EALL	≤ 0.2
TFLG	≤ 0.2
PYMY	≤ 0.2
ADKG	≤ 0.2
VRKL	≤ 0.2
AHIW	≤ 0.2
SYTM	≤ 0.2
KRAF	≤ 0.2
YLQT	≤ 0.2
ILLF	≤ 0.2
GHYF	≤ 0.2
RKTP	≤ 0.2
HHIY	≤ 0.2
RQCP	≤ 0.2
RFWP	≤ 0.2
KGTQ	≤ 0.2
RGVT	≤ 0.2
VQDS	≤ 0.2
GREG	≤ 0.2

Variant	one-hybrid fitness for binding NBS DNA
NEHM	≤ 0.2
DMGR	≤ 0.2
DQPT	≤ 0.2
KFSY	≤ 0.2
FKQV	≤ 0.2
HGHM	≤ 0.2
RGVE	≤ 0.2
TAKG	≤ 0.2
PHGS	≤ 0.2
HNYG	≤ 0.2
PIIA	≤ 0.2
PTRD	≤ 0.2
YAIV	≤ 0.2
SKEC	≤ 0.2
NFNS	≤ 0.2
YTYC	≤ 0.2
QTFF	≤ 0.2
AQPT	≤ 0.2
RWRR	0.341
HPRH	≤ 0.2
IRAE	≤ 0.2
FDKC	≤ 0.2
WDDV	≤ 0.2
QLMP	≤ 0.2

Variant	one-hybrid fitness for binding NBS DNA
EYPG	≤ 0.2
WQTT	≤ 0.2
EPGC	≤ 0.2
EMIV	≤ 0.2
RFVR	≤ 0.2
PRIC	≤ 0.2
TRKP	≤ 0.2
WLAC	≤ 0.2
VDFG	≤ 0.2
PCMD	≤ 0.2
PIRM	≤ 0.2
DVRK	≤ 0.2
HIVS	≤ 0.2
SRWG	≤ 0.2
PDPA	≤ 0.2
LSGP	≤ 0.2
YCLT	≤ 0.2
RPPC	≤ 0.2
KSGF	≤ 0.2
MCPG	≤ 0.2
QKDD	≤ 0.2
HFCS	≤ 0.2
GENS	≤ 0.2
VDGT	≤ 0.2

Variant	one-hybrid fitness for binding NBS DNA
TRHY	≤ 0.2
NQYV	≤ 0.2
QARA	0.519
TSQF	≤ 0.2
VDFY	≤ 0.2
VMCR	≤ 0.2
HLYR	≤ 0.2
GEIG	≤ 0.2
SPSW	≤ 0.2
PTAT	≤ 0.2
DCPG	≤ 0.2
VPRL	≤ 0.2
AILI	≤ 0.2
MSTC	≤ 0.2
TKKA	≤ 0.2
HDNL	≤ 0.2
TSDR	≤ 0.2
LLPL	≤ 0.2
NNAT	≤ 0.2
GVMT	≤ 0.2
TLAC	≤ 0.2
CRKV	≤ 0.2
RNQY	≤ 0.2
RQQM	≤ 0.2

Variant	one-hybrid fitness for binding NBS DNA
EKHL	≤ 0.2
RWMN	≤ 0.2
WHNT	≤ 0.2
YQPE	≤ 0.2
EWIS	≤ 0.2
KQVL	≤ 0.2
FHML	≤ 0.2
TPIS	≤ 0.2
KTCR	0.212
LNPC	≤ 0.2
SHNI	≤ 0.2
PADT	≤ 0.2
GTHK	≤ 0.2
CMTS	≤ 0.2
GYNK	≤ 0.2
EWPA	≤ 0.2
AKPP	≤ 0.2
VSIC	≤ 0.2
FRDM	≤ 0.2
PPRS	≤ 0.2
DEYI	≤ 0.2
WSPW	≤ 0.2
SEMC	≤ 0.2
NLHC	≤ 0.2

Variant	one-hybrid fitness for binding NBS DNA
QKAC	≤ 0.2
RRYN	0.26
GGLS	≤ 0.2
DSRF	≤ 0.2
TPNL	≤ 0.2
TSGD	≤ 0.2
HLTR	≤ 0.2
PDSQ	≤ 0.2
HIKR	≤ 0.2
MGMD	≤ 0.2
GQNL	≤ 0.2
HYHR	≤ 0.2
PCNC	≤ 0.2
ERCG	≤ 0.2
QHKT	0.732
NHHT	≤ 0.2
NKMT	≤ 0.2
QHNM	≤ 0.2
WHFR	≤ 0.2
LAFP	≤ 0.2
SIPT	≤ 0.2
NRNG	≤ 0.2
IQNR	≤ 0.2
SKYR	≤ 0.2

Variant	one-hybrid fitness for binding NBS DNA
PNID	≤ 0.2
PVSV	≤ 0.2
GPES	≤ 0.2
QGMF	≤ 0.2
VGRY	≤ 0.2
LYKP	≤ 0.2
ADMS	≤ 0.2
CVVE	≤ 0.2
QRNR	1.03
RRLM	0.228
QEKF	≤ 0.2
CTRI	≤ 0.2
DETA	≤ 0.2
QNPP	≤ 0.2
CWHG	≤ 0.2
AISF	≤ 0.2
RGNE	≤ 0.2
QMKE	0.215
QPEL	≤ 0.2
PWPK	≤ 0.2
RDVD	≤ 0.2
RPAV	≤ 0.2
SNMM	≤ 0.2
ALEV	≤ 0.2

Variant	one-hybrid fitness for binding NBS DNA
SSAC	≤ 0.2
IFVR	≤ 0.2
VVQS	≤ 0.2
QHMA	≤ 0.2
RYTF	≤ 0.2
LVIG	≤ 0.2
ENIM	≤ 0.2
LVIS	≤ 0.2
VHHF	≤ 0.2
CMPQ	≤ 0.2
GKHR	≤ 0.2
LKQI	≤ 0.2
VTTE	≤ 0.2
QLEV	≤ 0.2
REKW	≤ 0.2
THFS	≤ 0.2
HHAV	≤ 0.2
IFMS	≤ 0.2
QNTG	≤ 0.2
LRYE	≤ 0.2
HQAK	≤ 0.2
RWDY	≤ 0.2
RMEQ	≤ 0.2
FAIA	≤ 0.2

Variant	one-hybrid fitness for binding NBS DNA
DMNR	≤ 0.2
QLPF	≤ 0.2
LSGC	≤ 0.2
SYST	≤ 0.2
GYLR	≤ 0.2
RSFN	≤ 0.2
SQAL	≤ 0.2
QCKW	0.324
EWPV	≤ 0.2
GYTC	≤ 0.2
SLKC	≤ 0.2
HMGL	≤ 0.2
YKYG	≤ 0.2
IIPS	≤ 0.2
QMNS	0.458
MGRT	≤ 0.2
SYIF	≤ 0.2
LTYS	≤ 0.2
NPED	≤ 0.2
TWCR	≤ 0.2
PALK	≤ 0.2
QQCW	≤ 0.2
TFLS	≤ 0.2
AKRY	≤ 0.2

Variant	one-hybrid fitness for binding NBS DNA
LSTN	≤ 0.2
LTKG	≤ 0.2
HVHG	≤ 0.2
IRCG	≤ 0.2
RHDK	≤ 0.2
AGYR	≤ 0.2
TRQW	≤ 0.2
HNYP	≤ 0.2
LRTN	≤ 0.2
FYGR	0.203
TWSV	≤ 0.2
INHF	≤ 0.2
RIAA	≤ 0.2
QKIS	0.278
CPTP	≤ 0.2
WCNV	≤ 0.2
DVTF	≤ 0.2
FLKD	≤ 0.2
LYPQ	≤ 0.2
YGFC	≤ 0.2
QIGD	≤ 0.2
QTSW	≤ 0.2
AARW	≤ 0.2
QYVI	≤ 0.2

Variant	one-hybrid fitness for binding NBS DNA
RHES	0.203
GLMC	≤ 0.2
TNSH	≤ 0.2
RTQA	0.294
RSIM	≤ 0.2
INTR	≤ 0.2
FRTR	≤ 0.2
RMCK	≤ 0.2
DTKH	≤ 0.2
TDLQ	≤ 0.2
RATC	≤ 0.2
GSLV	≤ 0.2
GFTY	≤ 0.2
MGFC	≤ 0.2
TGAT	≤ 0.2
PKTT	≤ 0.2
IAQN	≤ 0.2
RHVW	≤ 0.2
DSTD	≤ 0.2
IAGY	≤ 0.2
QPLE	≤ 0.2
AHCH	≤ 0.2
RETA	≤ 0.2
LQPV	≤ 0.2

Variant	one-hybrid fitness for binding NBS DNA
RNYH	≤ 0.2
ANPS	≤ 0.2
QHLD	≤ 0.2
KIGF	≤ 0.2
LQSM	≤ 0.2
NLKH	≤ 0.2
IVSW	≤ 0.2
RKAA	0.335
AIAT	≤ 0.2
KHEV	≤ 0.2
DRKC	≤ 0.2
VRMG	≤ 0.2
PYGH	≤ 0.2
RSKP	≤ 0.2
PHMG	≤ 0.2
RLIA	≤ 0.2
PSDM	≤ 0.2
EIHH	≤ 0.2
HLLW	≤ 0.2
AVPY	≤ 0.2
MVRE	≤ 0.2
MLHM	≤ 0.2
SCGS	≤ 0.2
FSLV	≤ 0.2

Variant	one-hybrid fitness for binding NBS DNA
PLAM	≤ 0.2
AFID	≤ 0.2
MHQY	≤ 0.2
LNAL	≤ 0.2
FRRY	≤ 0.2
VGFT	≤ 0.2
HHFT	≤ 0.2
AISM	≤ 0.2
FFGT	≤ 0.2
RPVA	≤ 0.2
MEHI	≤ 0.2
GYHM	≤ 0.2
ESMG	≤ 0.2
DNVG	≤ 0.2
TQWD	≤ 0.2
DSEW	≤ 0.2
YRVN	≤ 0.2
LTTW	≤ 0.2
